Experimental data published in the RNAGym collection of RNA variant scans (doi:10.7554/elife.90254).
Read counts are not given, so values of variants with three or more changes are uncertain.

B1: OR4K15 (parent)
chain: GUUAACGGUCAUAGGCCAUGGAAACUAGGAGCACCAUUUCGCUGCCAGUGAAGAAAUGAACAAAGAAAAUCUGGGCCAGGCAGGCAUCAAAAGAAAUAGUCUUGCGCUCAACCAGAAAGUCUGUAAUCAUUUUAAGGGUA

Variants of: B1
Assay: self-cleavage, relative activity (ratio to wild type); higher = more cleavage; in vitro, sequencing; the parent is a self-cleaving ribozyme

Which self-cleavage does the source give for GUUAACGGUCAUAGGCCACGGAAACUAGGAGCACCAUUUCGCUGCCAGUGAAGAAAUGAGCAAGGAAAAUCUGGGCCAGGCAGGCAACAAAAGAAAUAGUCUUGCGCUCAACCAGAAAGUCUGUAAUCAUUUUAAGGGUA [U19C A60G A64G U87A] here?
The self-cleavage was 0.79.

For GUUAACGGUCGUAGGCCAUGGAAACUAGGAGCACCAUUUCGCUGCCAGUGAAGAAAUGAACAAAGAAAAUCUGGGCCAGGCCGGCAUCAAAAGAAAUAGUCUUGCGCUCAACCAGAAAGUCUGUAAACAUUUUAAGGGUA [A11G A82C U127A], which self-cleavage is on record?
The self-cleavage was 0.4.

With GUUAACGGUCAUAGGCCAUGGAAACUAGGAGCACCAUUUCGCGGCCAGUGGAGAAAUGAACAAAGAAAAUCUGGGCCAGGCAGGCAUCAAAAGAAAUAGUCUUGCGCUCAACCAGAAAGUCUGUAAUCAUUUUAAGGGUG [U43G A51G A140G] as the variant, how does the self-cleavage read?
The self-cleavage was 2.34.

With GUUAACGGUCAUAGGCCAUGGAAACUAGGAGCACCAUUUCGCUGCCAGUGAAGAAAUGAACAAAGAAAAUCUGGGCCAGGCAGGCAUCAGAAGAAGUGGUCUUGUGCUCAACCAGAAAGCCUGUAAUCAUCUUAAGGGUA [A90G A96G A98G C105U U120C U131C] as the variant, how does the self-cleavage read?
Its self-cleavage is 0.01.

Which self-cleavage does the source give for GUUAACGGUCAUAGGCCAUGGAAACUAGGAGCACCAUUUCGCUGCCAGUGAGGAAAUGAACAAAGAAAAUCUGGGCCAGGCAGGCAUCAAAUGAAAUAGUCUUACGCUCAACCAGAAAGUCUGUAAUCACUUUAAGGGUA [A52G A92U G104A U130C] here?
Its self-cleavage is 0.01.

With GUUAACGGCCAUAGGCCAUGGAAACUAGGAGCACCAUUUCGCUGCCAGUGAAGAAAUGAACAAAGAAAGUCUGGGCCAGGCAGGCAUCAAAAGAAAUAGUCUUGCGCUCAACCAGAAAGUCUGUAAUCACUUUAAGGGUA [U9C A69G U130C] as the variant, how does the self-cleavage read?
The self-cleavage was 1.52.

Which self-cleavage does the source give for GAUAACGGUCAUAGGCCAUGGGAACUAGGAGCACCAUUUCGCUGCCAGUGAAGAAAUGAACAAAGCAAAUCUGGGCCAGGCAGGCAUCAAAAGAAAUAGUCUUGCGCUCAACCAGAAAGUCUGUAAUCAUUUUAAGGGUA [U2A A22G A66C] here?
The self-cleavage was 0.87.

Which self-cleavage does the source give for GUUAACGGUCAUAGGCCAUGGUAACUAGGAGCGCCAUUUCGCUGCCAGUGAAGAAAUGAGCAAAGAGAAUCUGGGCCAGGCAGGCAUCAAAAGAAAUAGUCUUGCGCUCAACCAGAAAGCCUGUAAUCAUUUUAAGGGUA [A22U A33G A60G A67G U120C] here?
The self-cleavage was 0.3.

Which self-cleavage does the source give for GUUAACGGCCAUAGGCCAUGGAAACUAGGAGCGCCAUUUCGCUGCCAGUGAAGAAAUGAACAAAGAAAAUCUGGGCCAGGCAGGCAUCAAAAGAAAUAGUCUUGUGCUCAACCAGAAAGUCUGUAAUCAUUUUAAGGGUA [U9C A33G C105U] here?
The self-cleavage was 0.12.

For GUUAACGGUCAUAGGCCGUGGAAACUAGGAGCACCAUUUCGCUGCCAGUGAAGAAAUGAACAAAGAAAAUCUGGGCCAGGCAGGCAUCAAAAGAAAUGGUCUUGCGCUCAACCAGAAGGUCUGUAAUCAUUUUAAGGGUA [A18G A98G A118G], which self-cleavage is on record?
The self-cleavage was 0.3.

For GUUAACGGUCAUAGGCCAAGGAAACUAGGAGCACCAUUGCGCUGCCAGUGAAGGAAUGAACAAAGAAAAUCUGGGCCAGGCAGGCAUCAAAAGGAAUAGUCUUGCGCUCAACCAGAAAGUCUGUAAUCAUUUUAAGGGUA [U19A U39G A54G A94G], which self-cleavage is on record?
The self-cleavage was 0.96.

For GUUAACGGUCAUAGGCCAUGGAAACUAGGAGCACCAUUUCGCUGCCAGUGAAGAAAUGAACAAAGAAAAUCUGGGCCAGGCAGGCAUCAAAAGAAAUAGUCCUGCGCUCAACCAGGAGGUCUGUAAUCAUUUUAAGGGUA [U102C A116G A118G], which self-cleavage is on record?
The self-cleavage was 0.4.

Which self-cleavage does the source give for GUUAUCGGUCAUAGGCCAUGGAAACUAGGAGCACCAUUUCGCUGCCAGUGAAGAAAUGAGCAUAGAAAAUCUGGGCCAGGCAGGCAUCAAAAGAAAUAGUCUUGCGCUCAACCAGAAAGUCUGUAAUCAUUUUAAGGGUA [A5U A60G A63U] here?
The self-cleavage was 1.31.

Which self-cleavage does the source give for GUUAACGGUCAUAGGCCAUGGAAACUAGGAGCACCAUUUCGCUGCCAAUGAAGAAAUGAACAAAGAAAAUCUGGGCCAGGCAGGCAUCAAAAGAAAUAGUCUUGCGCUCAACCAGAACGUCUGUAAUCAUUUUUAGGGUG [G48A A118C A134U A140G] here?
The self-cleavage was 0.76.

Which self-cleavage does the source give for GUUAACGGUCAUAGGCCAUGGAAACUAGGAGCACCAUUUCGCUGCCAGUGAAGAAAUGAACAAAGAAAAUCUGGGCCAGGCAGGCAUCUAAAGAAAUAGUCUUGCGCCCAACUAGAAAGUCUGUAAUCAUUUUAAGGGUA [A89U U108C C113U] here?
Its self-cleavage is 0.01.

For GUUAACGGUCAUAGACCAUGGAGACUAGGAGCACCAUUUCGCUGCCAGUGAAGAAAUGAACAAAGAAAAUCUGGGCCAGGCAGGCAUCAAAAGAAAUAGUCUUGCGCUCCACCAGAAAGUCUGUAAUCAUUUUAAGGGUA [G15A A23G A110C], which self-cleavage is on record?
The self-cleavage was 0.23.

Which self-cleavage does the source give for GUUAGCGGUCAUAGGCCAUGGACACUAGGAGCACCAUUCCGCCGCCAGUGAAGAAAUGAACAAAGAAAAUCUGGGCCAGGCAGGCAUCAAAAGAAAUAGUCUUGCGCUCAACCAGAAAGUCUGUAACCAUUUUAAGGGUA [A5G A23C U39C U43C U127C] here?
The self-cleavage was 1.11.

Which self-cleavage does the source give for GUUAACGGUCAUAGGCCAUGGAGACUAGGGGCACCACUUCGCUGCCAGUGAAGAAAUGAACAAAGAAAAUCUGGGCCAGGCAGGCAUCAAAAGAAAUAGUCUUGCGCUCAACCAGAAAGUCUGUAAUCAUCUUAAGGGUA [A23G A30G U37C U131C] here?
Its self-cleavage is 0.66.

Which self-cleavage does the source give for GUUAACGGUCGUAGGCCAUGGAAACUAGGAGCACCAUUUCGCUGCCAGUGAAGAAAGGAACAAAGAAAAUCUGGGCCAGGCAGGCAUCAAAAGAAAUAGUCUUGGGCUCAACCAGAAAGUCUGUAAUCAUUUUAAGGGUA [A11G U57G C105G] here?
Its self-cleavage is 0.09.

With GUUAACGGUCAUAGGCCAUGGAAACUAGGAGCACCAUUUCGCUGCCAGUGAAGAAGUGAACAAGGAAAAUCUGGGCCAGGCAGGCAUCAAAAGAGAUAGUCUUGCGCUCAACCAGAAAGUCUGCAAUCAUUUUAUGGGUA [A56G A64G A95G U124C A135U] as the variant, how does the self-cleavage read?
The self-cleavage was 1.67.

For GUUAACGGUCACAGGCCAUGGAAACUUGGAGCACCAUUUCGCUGCCAGUGAAGAAACGAACAAAGAAAAUCUGGGCCAGGCAGGCAUCAAAAGAAAUAGUCUUGCGCUCAACCAGAAAGUCUGUAAUCAUUUUAAGGGUA [U12C A27U U57C], which self-cleavage is on record?
The self-cleavage was 1.13.
